Whole data set: some 110,000 compounds, median “z-score” near -0.1, cut for the highest 2% near 2. The list shows a part of the results.
Each compound was assayed against Metabotropic glutamate receptor 8 (Rattus norvegicus) (UniProt P70579) (assay: mGluR8 Gi/Go-coupled signaling modulation – cell-based, rat, thallium flux, HTS, primary screen (AID 488969)). Details: HEK293 rat mGluR8, GIRK (G protein-gated inwardly rectifying potassium channel) thallium flux, FluoZin2; at 10 µM; stronger effect = higher value; submaximal glutamate (EC20) added with thallium.
UniProt P70579, sequence (P70579 whole entry, looked up): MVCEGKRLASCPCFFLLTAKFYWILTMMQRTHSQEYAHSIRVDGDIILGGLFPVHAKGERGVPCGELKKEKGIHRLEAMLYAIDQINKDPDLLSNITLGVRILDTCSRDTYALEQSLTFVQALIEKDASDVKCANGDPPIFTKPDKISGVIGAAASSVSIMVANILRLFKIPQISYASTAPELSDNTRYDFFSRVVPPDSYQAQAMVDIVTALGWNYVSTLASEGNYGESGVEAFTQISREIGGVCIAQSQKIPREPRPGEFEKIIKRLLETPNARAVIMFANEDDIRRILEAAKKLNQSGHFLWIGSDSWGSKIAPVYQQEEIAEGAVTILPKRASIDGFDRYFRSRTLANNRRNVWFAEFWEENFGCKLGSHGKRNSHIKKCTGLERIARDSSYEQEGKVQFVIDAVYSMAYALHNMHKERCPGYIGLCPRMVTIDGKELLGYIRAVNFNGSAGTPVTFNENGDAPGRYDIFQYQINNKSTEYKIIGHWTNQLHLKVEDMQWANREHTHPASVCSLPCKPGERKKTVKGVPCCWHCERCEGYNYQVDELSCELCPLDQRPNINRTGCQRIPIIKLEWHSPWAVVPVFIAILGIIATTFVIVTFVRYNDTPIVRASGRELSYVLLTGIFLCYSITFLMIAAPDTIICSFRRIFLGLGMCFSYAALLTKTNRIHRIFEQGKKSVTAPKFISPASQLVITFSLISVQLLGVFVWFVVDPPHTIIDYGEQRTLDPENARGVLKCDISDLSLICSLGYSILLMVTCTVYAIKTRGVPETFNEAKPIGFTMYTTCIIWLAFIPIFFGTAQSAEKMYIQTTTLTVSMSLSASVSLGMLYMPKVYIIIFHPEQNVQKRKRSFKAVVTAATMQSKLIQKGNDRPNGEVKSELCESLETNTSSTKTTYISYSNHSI

| Compound | z-score |
| --- | --- |
| c1ccc(CNC2=NCCC2)nc1 | -0.926 |
| COc1ccc(Nc2ccc(S(=O)(=O)N3CCCCC3)cc2[N+](=O)[O-])cc1 | 1.48 |
| CCc1ccccc1N1CSC2=C(C#N)C(c3ccccc3F)CC(=O)N2C1 (stereo not given) | -0.115 |
| Cc1nc2c(o1)CCc1ccccc1C2O (stereo not given) | -0.338 |
| CCOC(=O)c1nnn(CC(=O)N2N=C(c3ccccc3)CC2c2ccccc2)c1C(=O)OCC (stereo not given) | 0.339 |
| CCCn1c(=NC(C)=O)c(C(=O)OCC)cc2c(=O)n3ccccc3nc21 | -0.42 |
| CC1CCc2c(C(=O)Nc3nccs3)csc2C1 (stereo not given) | -0.208 |
| Cc1ccc(/C=C/C(=O)Nc2cccc(S(=O)(=O)N3CCOCC3)c2)o1 | 0.0167 |
| Cc1cc(C)c(C(=O)CSC2=NC(N)=C(C#N)C3(CCCCC3)C2C(N)=O)cc1C (stereo not given) | 0.332 |
| CCOC(=O)C1=C(C)N=C2SCCC(=O)N2C1c1sccc1C (stereo not given) | -2.13 |
| COc1cc(C2c3c(-c4cc(C)cc(C)c4O)n[nH]c3C(=O)N2CCCO)cc(OC)c1OC (stereo not given) | -0.272 |
| CCCCN(C)C(=O)CCCc1c[nH]c2ccccc12 | -0.0422 |
| COc1ccc(N2CCN(C(=O)CCCSc3nc4ccccc4[nH]3)CC2)cc1 | -0.47 |
| CN(C)c1nc(N(C)C)nc(N(C#N)CN2C(=O)c3ccccc3C2=O)n1 | -0.351 |
| COc1cc(NC2c3ccccc3C(=O)N2c2cc(C)ccn2)cc(OC)c1OC (stereo not given) | 0.39 |
| O=C1CN(c2ccc(Br)cc2)C(=O)N1CC(=O)N1CCCc2ccccc21 | -0.157 |
| COc1cccc(N2CC(C(=O)Oc3ccc4ccccc4c3)CC2=O)c1 (stereo not given) | -0.644 |
| N#CC1=C(N)C2=CCCC[C@H]2[C@H](c2ccccc2)C1(C#N)C#N | -1.18 |
| Cc1ccc(CC(=O)O/N=C(\N)c2cccc([N+](=O)[O-])c2)cc1 | -0.143 |
| Cc1csc(Nc2ccccc2C(F)(F)F)n1 | -0.301 |
| CCCNC(=O)c1cccc(C(F)(F)F)c1 | -0.236 |
| Cc1ccc(C(=O)N(CC(=O)NC2CCCCC2)c2ccccc2C)s1 | -0.171 |

| Compound | z-score |
| --- | --- |
| CC(C)(C)NC(=O)CN(C(=O)C1CSC(=O)C1)c1ccc2c(c1)OCCO2 (stereo not given) | -0.19 |
| O=C(O)c1ccc2c(=O)n3c(nc2c1)/C(=C/c1ccccc1C(F)(F)F)CCCC3 | -1.78 |
| Cc1ccccc1NC(=O)COC(=O)/C=C/c1cn(-c2ccccc2)nc1-c1cccnc1 | -0.0968 |
| Cc1cc2n(n1)C(c1cn(-c3ccccc3)nc1C)Nc1ccccc1-2 (stereo not given) | -2.98 |
| O=C(CSCc1c(F)cccc1Cl)NCC1CCCO1 (stereo not given) | 0.24 |
| CC(=O)N/C(=N/c1nc(C)cc(C)n1)Nc1ccc(NC(C)=O)cc1 | -0.162 |
| Cc1oc(C(=O)O)cc1COc1ccccc1Cl | -0.082 |
| CCC1CCCCN1C(=S)NC1CCCCC1 (stereo not given) | -0.361 |
| Cc1[nH]c2ccccc2c1C(=O)CN1CCC(C(N)=O)(N2CCCCC2)CC1 | 0.069 |
| O=C(Nc1cccs1)Nc1c(F)c(F)c(F)c(F)c1F | 0.248 |
| CCOC(=O)c1cnn2c(C(F)F)cc(C3CC3)nc12 | -0.136 |
| CC(=O)C1=C(C)NC(=O)NC1c1cc(Br)ccc1OCC#N (stereo not given) | 0.116 |
| CC(C)Cn1c(O)c2ccc(C(=O)N=NC(=O)c3cccnc3)cc2c1O | -0.0881 |
| CCCc1cc(-c2[nH]ncc2-c2ccc3c(c2)OCCCO3)c(O)cc1OC | 0.497 |
| CS(=O)(=O)N(Cc1ccc(Cl)cc1)c1ccc(C(=O)Nc2cccnc2)cc1 | -0.045 |
| C=CCN(C(=O)CNC(=O)c1ccco1)C(C(=O)NC1CCCCC1)c1ccc(F)cc1 (stereo not given) | 0.437 |
| O=C(c1ccc2c3c(cccc13)C(=O)N(O)C2=O)N1CCCCC1 | 0.845 |
| CCOC(=O)Cc1nnc(NC(=O)COc2ccc(F)cc2)s1 | -0.124 |
| Cc1ccc(N2C(=O)c3ccc(C(=O)N4CCOCC4)cc3C2=O)cc1C | -0.248 |
| CCN(C(=O)c1ccc(NC(C)=O)cc1)c1ccccc1 | 0.0781 |
| O=C(NC1=NCCS1)c1nc(-c2ccccc2)n(-c2ccccc2)n1 | -0.225 |
| COc1cccc(CNC(=O)c2cnc(-c3ccccn3)nc2C(F)(F)F)c1 | -0.219 |

| Compound | z-score |
| --- | --- |
| COc1cccc(C2=NOC(C(=O)N3CCN(c4ccccc4)CC3)C2)c1OC (stereo not given) | 0.541 |
| Cn1c(SCC(=O)Nc2ccc3nc(SCC(=O)N4CCCC4)sc3c2)nnc1-c1ccccc1 | -0.619 |
| COc1ccc(NC(=O)CNCCC2=CCCCC2)cc1 | -0.335 |
| COC(=O)c1sccc1NC(=O)c1cc(-c2cc(C)ccc2C)nc2ccccc12 | -0.139 |
| C/C(=N\NC(=O)Cc1cccn1C)c1ccc2ccccc2c1 | -0.1 |
| COc1cc(/C=C2\SC(=S)N(Nc3ncc(C(F)(F)F)cc3Cl)C2=O)cc(OC)c1OC | 0.253 |
| CCOC(=O)C(NC(=O)c1ccccc1)=C(C)C | -0.106 |
| COc1ccc(-c2nnc(N3CCC(C)CC3)c3ccccc23)cc1 | -0.528 |
| COCCNc1nc2c(c(=O)n(C)c(=O)n2C)n1Cc1cccc(C)c1 | -0.0465 |
| COc1ccc(S(=O)(=O)Nc2ccc(S(=O)(=O)N3CCCCC3)cc2)cc1OC | -0.502 |
| COc1cc(OC)cc(C(=O)N2CCN(S(C)(=O)=O)CC2)c1 | 0.315 |
| CCCOc1ccc(S(=O)(=O)NCCCN2CCOCC2)c2ccccc12 | 0.408 |
| COC(=O)Sc1nnc(-c2ccc(Br)cc2)o1 | -0.575 |
| Cc1cnc(NC(=O)C(C)N2C(=O)C3CC=CCC3C2=O)s1 (stereo not given) | 0.0125 |
| COc1cc(C2c3c(n[nH]c3C)C(=O)N2c2ccc(Br)cc2)ccc1O (stereo not given) | -1.36 |
| CCSCCOC(=O)C1=C(C)NC(=O)NC1c1cccc(OC)c1OC (stereo not given) | -0.111 |
| CCCCCCC1CCC(C(=O)NC(CCSC)C(=O)NC(C(=O)OC)C(C)C)CC1 (stereo not given) | 0.478 |
| Cc1ccc(C)c(NC(=O)/C(C#N)=C/c2ccc(Sc3nncn3C)c([N+](=O)[O-])c2)c1 | -0.0512 |
| CC1CCN(C(=O)c2ccc(S(=O)(=O)Cc3ccccc3F)c([N+](=O)[O-])c2)CC1 | -0.14 |
| Cc1ccc(S(=O)(=O)N2CCN(S(=O)(=O)N3CCCCC3)CC2)c(C)c1 | 0.206 |
| CSCCC(C(=O)NCc1cccs1)N1C(=O)c2ccccc2C1=O (stereo not given) | -0.0636 |
| O=C(Nc1ccncc1)c1cc2ccccc2o1 | 0.226 |

| Compound | z-score |
| --- | --- |
| Cc1ccc(S(=O)(=O)n2nc(-c3ccc(Cl)cc3)nc2NCc2ccco2)cc1 | -0.393 |
| CCCOc1ccccc1NC(=O)/C=C/C(N)=O | -0.22 |
| O=C(/C(=C/O)N=Nc1ccccc1)c1ccncc1 | -0.489 |
| CCSc1nnc2c(n1)OC(C)(C)Nc1ccccc1-2 | 0.207 |
| CCOc1cc(CNc2ccc(O)cc2)cc(Br)c1OCc1ccccc1F | -0.0546 |
| Cc1nc2cc(NC(=O)N3CCN(c4ccccn4)CC3)ccc2o1 | -0.0397 |
| Cc1cc(-c2ccccc2)c2c(=O)[nH][nH]c2n1 | 0.00889 |
| COc1ccc(OC)c(-c2cc(C(=O)N3CCc4ccccc4C3)no2)c1 | 0.245 |
| C/C(=N\NC(=O)c1cc(C2CC2)nc2ccccc12)c1ccc(C)s1 | -0.135 |
| CCCC(=O)OCCNc1cc(Sc2nc3ccccc3[nH]2)c2nonc2c1[N+](=O)[O-] | -0.682 |
| Cc1ccc(S(=O)(=O)NC2=NCN(CCOC(=O)c3ccccc3)CN2)cc1 | 0.00239 |
| O=S1(=O)CC=C(CSc2nc3ccccc3[nH]2)C1 | 0.118 |
| Fc1cccc2sc(N3CCOCC3)nc12 | 0.0378 |
| CC1=CC(C)(C)N(C(=O)C(C)N2C(=O)c3ccccc3C2=O)c2ccc(C)cc21 (stereo not given) | 0.526 |
| Cc1cc(Cl)ccc1NC(=O)CSc1nnc(-c2ccncc2)n1Cc1ccco1 | 0.234 |
| Nc1cc(=O)nc(SCC(=O)NCc2ccccc2)n1CCc1ccccc1 | 0.182 |
| O=C(NCCCN1CCCCC1)C1(S(=O)(=O)c2ccc(Cl)cc2)CC1 | 0.105 |
| CCOc1cc(N2CCOCC2)c(OCC)cc1NC(=O)Cc1ccccc1OC | -0.332 |
| O=C(CSc1ncn[nH]1)Nc1nnc(-c2ccccc2)s1 | 0.104 |
| CC1CCc2ccccc2N1C(=O)c1cccs1 (stereo not given) | -0.415 |
| COc1cc(N2CCCC2)c(OC)cc1/C=C(/C#N)c1cccc(F)c1 | -0.301 |
| Cc1c(Cl)cccc1NC(=O)CN1C(=O)CSc2ncccc21 | -0.338 |

| Compound | z-score |
| --- | --- |
| Cc1cccc(C(=O)Nc2nnc(SCC(=O)Nc3ccc4c(c3)oc3ccccc34)s2)c1 | -0.242 |
| Cc1nc(NC(=S)NC(=O)c2ccccc2)sc1C(=O)N(C)C | -0.185 |
| CCOc1ccccc1NC(=O)Cc1coc2cc(C)ccc12 | -0.0727 |
| O=C(Cn1nnc(-c2ccncc2)n1)NCCc1ccccc1 | 0.333 |
| CCn1c(SCC(=O)Nc2nccs2)nnc1-c1ccc(S(=O)(=O)N2CCCCCC2)cc1 | -0.515 |
| O=C(c1cc(C2CC2)nc2ccccc12)N1N=C(C(F)F)CC1(O)C(F)F (stereo not given) | -0.303 |
| Cc1ccc(C2C(C(=O)c3sc(-c4ccccc4)nc3C)=C(O)C(=O)N2CCN(C)C)o1 (stereo not given) | -0.493 |
| CC(C)N(C(=O)CSc1nc2ccccc2n1-c1ccccc1)C(C)C | -0.488 |
| CCCS(=O)(=O)N1CCCC(C(=O)NC2CCCC(C)C2C)C1 (stereo not given) | -0.429 |
| C/C(CC(=O)Nc1ccccn1)=N\NC(=O)C(=O)Nc1cccc(C)c1 | 0.00246 |
| CCNC(=S)NCCN1CCOCC1 | -0.386 |
| Cc1nnc(NC(=O)CSc2nnnn2Cc2ccccc2)s1 | -0.0623 |
| CCCOc1ccc(NC(N)=O)cc1OCCC | 0.631 |
| CCOc1c2ccc(C(=O)NCc3ccc(OC(F)(F)F)cc3)cc2nn1C | -0.395 |
| Cc1ccc(N(CC(=O)NCC2CCCO2)C(=O)CCC(=O)Nc2ccccn2)cc1C (stereo not given) | -0.0898 |
| Cc1ccc(C(=O)Nc2ccc(C)c(S(=O)(=O)N(C)C)c2)s1 | -0.318 |
| COc1cccc(-c2cc(C(F)(F)F)nc(-n3cccn3)n2)c1 | -0.245 |
| Cc1ccc(C23CC4CC(CC(NC(=O)N5CCN(C)CC5)(C4)C2)C3)cc1 | 0.361 |
| Cc1cc(C)n2[nH]c(=O)c(N=Nc3ccccc3)c2n1 | -0.498 |
| COc1cccc(CC(=O)n2nc(N)c3cc4ccc(OC)cc4nc32)c1 | -0.18 |
| Cc1c(Cl)cnc(NC(=O)COC(=O)CCc2nc3ccccc3s2)c1Cl | -0.159 |
| Cc1ccc(C2N(c3ccc(Cl)c(Cl)c3)C(=O)C3CCCN32)o1 (stereo not given) | -0.238 |
